Test results: patent publication US20250376529A1 (Amgen, published 2025)
Residue numbers refer to the chain shown, from its start.

B1: 5C2.012 (antibody, human IgG1, kappa, N297G)
heavy: QVPLVQSGAEVKKPGASVKVSCKASGYTFTGYYIHWVRQAPGQGLEWMGWINPDSGGTDYSQRFQGRVTMTRDTSISTAYMELNRLRSDDTAVYYCAREATIFGMVIVPFDYWGQGTLVTVSSASTKGPSVFPLAPSSKSTSGGTAALGCLVKDYFPEPVTVSWNSGALTSGVHTFPAVLQSSGLYSLSSVVTVPSSSLGTQTYICNVNHKPSNTKVDKKV[human IgG1 Fc with R292C N297G V302C (EU numbers) not written out]
light: DIVMTQSPDSLAVSLGERATINCKSSQSVLSSSNNKNYIAWYQQQPGHPPKLLIYWASTRESGVPDRFSGSGSGTDFTLTISSLQAEDVAVFYCQQYYSTPWTFGQGTKVEIKRTVAAPSVFIFPPSDEQLKSGTASVVCLLNNFYPREAKVQWKVDNALQSGNSQESVTEQDSKDSTYSLSSTLTLSKADYEKHKVYACEVTHQGLSSPVTKSFNRGEC
B2: 5C2.014 (antibody, human IgG1, kappa, N297G)
heavy: B1 heavy with S55A
light: B1 light
B3: 5C2 (antibody, human IgG1, kappa, N297G)
heavy: B1 heavy with V68F
light: B1 light
B4: 5C2.013 (antibody, human IgG1, kappa, N297G)
heavy: B1 heavy with P3Q, S55A, V68F
light: B1 light
B5: 5C2.009 (antibody, human IgG1, kappa, N297G)
heavy: B1 heavy with S55A, V68F
light: B1 light
B6: 6A5.004.001 (antibody, human IgG1, kappa, N297G)
heavy: QVQLVESGGGVVQPGRSLRLSCAASGFSFSSYGMHWVRQPPGKGLEWVAAIWYDANNKYYADAVKGRFTISRDSSKNTLYLQMNSLRAEDTAVYYCARDRTIFGVVLEYWGQGTLVTVSSASTKGPSVFPLAPSSKSTSGGTAALGCLVKDYFPEPVTVSWNSGALTSGVHTFPAVLQSSGLYSLSSVVTVPSSSLGTQTYICNVNHKPSNTKVDKKV[human IgG1 Fc with R292C N297G V302C (EU numbers) not written out]
light: DIQMTQSPSSLSASVGDRVTITCQASQDITNYLNWYQQKPGKAPKLLIYDASNLEPGVPSRFSGSGSGTDFTLTISSLQPEDFATYYCQQYDDLFTFGPGTKVDIKRTVAAPSVFIFPPSDEQLKSGTASVVCLLNNFYPREAKVQWKVDNALQSGNSQESVTEQDSKDSTYSLSSTLTLSKADYEKHKVYACEVTHQGLSSPVTKSFNRGEC
B7: 6A5.004.004 (antibody, human IgG1, kappa, N297G)
heavy: B6 heavy
light: B6 light with L73F
B8: 6A5.004.002 (antibody, human IgG1, kappa, N297G)
heavy: B6 heavy
light: B6 light with F83I
B9: 6A5.004.006 (antibody, human IgG1, kappa, N297G)
heavy: B6 heavy with W110L
light: B6 light with L73F
B10: 6A5.004.005 (antibody, human IgG1, kappa, N297G)
heavy: B6 heavy with W110L
light: B6 light with F83I
B11: 6A5.004.003 (antibody, human IgG1, kappa, N297G)
heavy: B6 heavy with W110L
light: B6 light
B12: 6A5.004.010 (antibody, human IgG1, kappa, N297G)
heavy: B6 heavy
light: B6 light with P99Q

Target: T1, Rhesus GIPR (rhesus, UniProt F7E1R9 22-466)
T1 sequence: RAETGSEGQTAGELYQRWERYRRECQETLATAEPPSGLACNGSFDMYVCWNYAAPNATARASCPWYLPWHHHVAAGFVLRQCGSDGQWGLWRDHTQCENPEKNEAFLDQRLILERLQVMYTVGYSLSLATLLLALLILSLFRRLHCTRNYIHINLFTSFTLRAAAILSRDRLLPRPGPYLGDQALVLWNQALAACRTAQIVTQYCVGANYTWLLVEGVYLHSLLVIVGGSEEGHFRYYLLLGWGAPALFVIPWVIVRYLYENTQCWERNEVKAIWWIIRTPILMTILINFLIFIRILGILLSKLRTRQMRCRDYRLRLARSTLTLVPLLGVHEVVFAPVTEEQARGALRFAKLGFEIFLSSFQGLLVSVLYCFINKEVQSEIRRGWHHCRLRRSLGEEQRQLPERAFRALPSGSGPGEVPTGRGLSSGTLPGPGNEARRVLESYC
Experiment: cell-based or functional assay

Binder	Rhesus GIPR CAMP Assay (Conc. mAb @ 60% Inhibition in nM)
B1	0.65 nM
B2	0.54 nM
B3	0.53 nM
B4	7.02 nM
B5	0.6 nM
B6	0.9 nM
B7	0.97 nM
B8	0.88 nM
B9	0.77 nM
B10	0.62 nM
B11	0.78 nM
B12	0.81 nM
